Molecular target: T1, human properdin (human, UniProt P27918 28-469)
T1 sequence (looked up): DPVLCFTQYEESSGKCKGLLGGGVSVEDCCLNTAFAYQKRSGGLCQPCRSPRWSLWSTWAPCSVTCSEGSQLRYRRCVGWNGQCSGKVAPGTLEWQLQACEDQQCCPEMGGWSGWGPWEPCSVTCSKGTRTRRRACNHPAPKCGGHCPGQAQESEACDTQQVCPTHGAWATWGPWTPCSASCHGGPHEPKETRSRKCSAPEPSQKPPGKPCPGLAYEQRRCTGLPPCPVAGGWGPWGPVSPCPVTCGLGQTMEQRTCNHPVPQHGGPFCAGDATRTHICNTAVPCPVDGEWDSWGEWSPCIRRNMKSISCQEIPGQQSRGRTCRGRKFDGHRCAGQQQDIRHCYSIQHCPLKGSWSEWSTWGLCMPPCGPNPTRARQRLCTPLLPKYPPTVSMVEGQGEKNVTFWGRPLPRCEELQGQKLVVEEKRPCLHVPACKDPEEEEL
Experiment: cell-based or functional assay

B1: TPP-2222 (LVP058_hG1_noC1q, VHH on human Fc without C1q binding) (Fc fusion)
chain: LEVQLVESGGGLVQAGGSLRLSCAASGRISSIIHMAWYRQAPGKQRELVAEISRVGTTVYADSVKGRFTISRDDAKNTVTLQMNSLKPEDTAVYYCNALQYEKHGGADYWGQGTQVTVSS[here human IgG1 Fc with K322A (EU numbers) without letters]
- IC50 (read off the curve): ~8 nM

Reference: patent publication US20190352381A1 (Alexion, published 2019)
